Results taken from paper PMC4336329 (PLoS ONE, 2015).
Screen size: about 310,000 compounds; about 2,200 (0.71%) showed an effect of 50% or more. The effect is printed as a negative number. The list shows a part of the results.

What follows are molecules tested against human ether-à-go-go-related gene (hERG) potassium channel (human, UniProt Q12809) (assay: primary screen, population patch clamp on CHO cells stably expressing hERG).
Chain of human ether-à-go-go-related gene (hERG) potassium channel (Q12809 whole entry, looked up): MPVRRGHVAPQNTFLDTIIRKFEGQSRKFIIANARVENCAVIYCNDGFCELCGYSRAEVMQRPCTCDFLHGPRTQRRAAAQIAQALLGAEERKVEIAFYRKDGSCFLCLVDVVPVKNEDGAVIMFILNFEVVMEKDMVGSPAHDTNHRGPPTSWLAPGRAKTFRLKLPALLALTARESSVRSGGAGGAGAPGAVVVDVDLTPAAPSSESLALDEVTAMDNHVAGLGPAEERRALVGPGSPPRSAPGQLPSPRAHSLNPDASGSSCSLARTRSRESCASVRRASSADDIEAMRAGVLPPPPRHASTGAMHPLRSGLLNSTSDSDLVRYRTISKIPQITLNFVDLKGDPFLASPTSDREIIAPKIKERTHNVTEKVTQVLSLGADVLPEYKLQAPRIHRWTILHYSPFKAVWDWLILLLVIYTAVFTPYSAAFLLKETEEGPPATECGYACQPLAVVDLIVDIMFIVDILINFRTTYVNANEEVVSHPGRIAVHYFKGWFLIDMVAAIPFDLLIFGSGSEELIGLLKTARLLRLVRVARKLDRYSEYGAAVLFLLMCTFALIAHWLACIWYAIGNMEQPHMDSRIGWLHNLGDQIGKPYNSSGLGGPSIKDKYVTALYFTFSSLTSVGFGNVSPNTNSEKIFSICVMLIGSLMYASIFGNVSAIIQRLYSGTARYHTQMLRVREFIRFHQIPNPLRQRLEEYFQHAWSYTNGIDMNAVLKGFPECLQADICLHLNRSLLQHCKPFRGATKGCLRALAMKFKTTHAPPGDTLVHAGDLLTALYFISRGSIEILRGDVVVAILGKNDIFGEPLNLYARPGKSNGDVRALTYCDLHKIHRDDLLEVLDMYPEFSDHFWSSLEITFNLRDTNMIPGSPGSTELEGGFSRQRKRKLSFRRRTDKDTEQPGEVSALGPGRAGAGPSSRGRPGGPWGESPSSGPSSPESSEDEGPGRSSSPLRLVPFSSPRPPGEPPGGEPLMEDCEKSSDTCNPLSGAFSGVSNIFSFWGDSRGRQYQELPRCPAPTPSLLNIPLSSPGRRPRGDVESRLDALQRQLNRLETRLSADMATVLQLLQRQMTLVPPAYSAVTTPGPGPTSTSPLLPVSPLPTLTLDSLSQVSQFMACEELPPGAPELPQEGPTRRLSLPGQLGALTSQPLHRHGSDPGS

SMILES	hERG current change (%, negative = inhibition) at 1uM
CCc1ccc(C(=O)NNC(=O)C2CSC3(C)CCC(=O)N23)cc1 (stereo not shown)	3.26%
CCCCOc1ccc(C(=O)NNC(=O)C2C3CCC(C3)C2C(=O)O)cc1 (stereo not shown)	7.18%
Cc1ccc(NC(=S)N(CCN2CCOCC2)Cc2cc3cc4c(cc3[nH]c2=O)OCCO4)cc1	2.59%
COc1ccc(CSc2nncn2C)cc1[N+](=O)[O-]	8.66%
CC1CN(C(=S)SCC(=O)c2ccccc2)CC(C)O1 (stereo not shown)	4.52%
Cc1ccccc1NC(=O)c1nn(C)c2c1CS(=O)(=O)c1ccccc1-2	10.4%
COc1ccc(N2CCN(C(=O)c3ccc4c(c3)CCN4S(=O)(=O)c3ccccc3)CC2)cc1	6.88%
CCn1nc(C(=O)Nc2nc3ccccc3[nH]2)c2ccccc2c1=O	9.33%
CCN(CC)C1CCN(C(=O)CCn2nnnc2CN2CCOCC2)C1 (stereo not shown)	19.2%
Cc1cccc2sc(N(CCCN(C)C)C(=O)CCS(=O)(=O)c3ccccc3)nc12	0.941%
S=C1SCN(CC2CC2)CN1CC1CC1	8.33%
COc1cc(C)c(S(=O)(=O)N2CCN=C2c2ccccc2)cc1C	4.29%
O=C(c1ccc(S(=O)(=O)Nc2ccc(F)cc2)cc1)N1CCN(C(=O)c2ccco2)CC1	1.55%
CC(Oc1ccc(Br)cc1)C(=O)Nc1ccc(N2CCOCC2)cc1N1CCOCC1 (stereo not shown)	-3.69%
COc1ccccc1-c1nc(C#N)c(N2CCN(c3ccccc3)CC2)o1	-5.28%
COc1ccc(CC2=CC(=O)c3ccccc3C2=O)cc1	13.1%
CCOc1ncccc1C(=O)N(C)CC(=O)Nc1ccc(C)cc1	-4.04%
O=C(Nn1cnc2ccccc2c1=O)c1cccc(Cl)c1	10.2%
CCN(CC)S(=O)(=O)c1ccc2c(c1)N(CC(=O)NCCCN1CC(C)CC(C)C1)C(=O)CO2 (stereo not shown)	8.87%
COc1ccc(N2CCN(C(=O)c3cccnc3)CC2)c([N+](=O)[O-])c1	-16.1%
CSc1ccc(C(=O)C2CCCN(Cc3cccc4nccnc34)C2)cc1 (stereo not shown)	-82%
COc1cc2c(cc1OC)C(C1(O)CCCCC1)NCC2 (stereo not shown)	15%
CCOC(=O)c1c(C)c(C(=O)OCC)n(C)c1C	5.67%

SMILES	hERG current change (%, negative = inhibition) at 1uM
COc1ccc(O)c(-c2cc(-c3ccccc3[N+](=O)[O-])[nH]n2)c1	-1.33%
COc1ccccc1C(=O)N1CCN=C1c1ccccc1	0.902%
COc1cc(Cl)ccc1OCc1cc(C(=O)N2CCCCCC2)no1	13.9%
Cc1nn(CC(=O)Nc2ccc(Cl)cn2)c(C)c1Br	3.29%
COc1ccc(C(=O)N/C(=C\c2cn(C)c3ccccc23)C(=O)N2CCN(C)CC2)cc1OC	14.5%
CCCCn1c(N)c(S(=O)(=O)c2ccc(C)cc2)c2nc3ccccc3nc21	6.52%
CCOC(=O)CSc1nc(=O)n2cc(C)ccc2n1	5.71%
c1ccc2c3c(ccc2c1)OCC1CONC31 (stereo not shown)	10.8%
COc1ccc(C(=O)Nc2nc(-c3ccc(S(=O)(=O)N4CCOCC4)cc3)cs2)cc1	-2.5%
Cc1ccc2sc(N(CCN(C)C)C(=O)c3ccc(S(=O)(=O)N4CC(C)OC(C)C4)cc3)nc2c1C.Cl (stereo not shown)	3.51%
COC(=O)c1ccccc1NC(=O)C1CCC(=O)N1S(=O)(=O)c1ccc(C)cc1 (stereo not shown)	0.921%
COc1ccccc1NC(=O)CSc1nc2ccccc2n1C(C)=O	-6.42%
O=C(CSc1nc(=O)n(CCN2CCOCC2)c2c1CCCC2)Nc1ccc([N+](=O)[O-])cc1	1.39%
COc1ccc(OC)c(NC(=O)/C=C/c2ccccc2[N+](=O)[O-])c1	-1.33%
COc1ccc(N(CC(=O)Nc2cccc(F)c2)S(=O)(=O)c2c(C)[nH]c(=O)[nH]c2=O)cc1	14.9%
O=C(CCc1nnc(-c2ccc(-c3ccccc3)cc2)o1)NCCc1ccccn1	3.54%
CCOc1ccc(-c2nc(S(=O)(=O)c3ccccc3)c(NC)o2)cc1	12.6%
O=C(c1ccc(S(=O)(=O)N2CCCC2)cc1)N1CCCC(C(F)(F)F)C1 (stereo not shown)	4.41%
Cc1ncsc1CCSc1n[nH]c(=O)n1-c1ccccc1	8.71%
CCOC(=O)c1c(S(=O)(=O)Nc2ccccn2)c(C)n(C)c1C	6.91%
CCN(CC)S(=O)(=O)c1ccc(N2CCOCC2)c(NC(=O)COc2ccccc2C)c1	6.38%
CCOC(=O)C1=C(C)C(c2ccccc2)NC(=S)N1 (stereo not shown)	-1.84%
C=CCn1c(SCC(=O)C(C)(C)C)nnc1-c1cccs1	-9.56%
